# The list shows a part of the results. The full chains were built here from the parent and the listed change. Values near 0.05 are background.
# B1: TEV protease; numbered along this chain (parent)
# chain: MGESLFKGPRDYNPISSSICHLTNESDGHTTSLYGIGFGPFIITNKHLFRRNNGTLVVQSLHGVFKVKDTTTLQQHLVDGRDMIIIRMPKDFPPFPQKLKFREPQREERICLVTTNFQTKSMSSMVSDTSCTFPSGDGIFWKHWIQTKDGQCGSPLVSTRDGFIVGIHSASNFTNTNNYFTSVPKNFMELLTNQEAQQWVSGWRLNADSVLWGGHKVFMVKPEEPFQPVKEATQL
# Variants of: B1
# Experiment: raw area under fraction-flipped curve 0-4 h after induction (AUC4h, not background-subtracted), DNA-recorder readout of cleavage of the substrate (dimensionless); higher = more cleavage of the substrate by the protease variant
# Settings: temperature: 34 °C; time window: 0-4 h after rhamnose induction
# Procedure: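 In vivo DNA recorder in E. coli TOP10(DE3) ΔrhaA at 34 °C. Each TEVp single-site mutant (parent TEVp 0) is paired with a single-site variant of the 7-mer TEVs (canonical ENLYFQ|S). The substrate sits between flexible linkers in a Bxb1-sfGFP-TEVs-SsrA fusion, so cleavage stabilises Bxb1 and speeds flipping of a recombination array, read by NGS. The value is the raw area under the fraction-flipped curve over 0-4 h after rhamnose induction (AUC4h), with ≥20 reads per time point. It is not background-subtracted; inactive controls average about 0.047.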
# 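Further: Bxb1 expression induced with 0.2% (w/v) L-rhamnose at OD600 near 0.5, cultures sampled hourly, flipped fraction per protease–substrate barcode pair counted by paired-end Illumina sequencing.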
Variant,area with substrate ENLYCQS,area with substrate ENLYDQS,area with substrate ENLYEQS,area with substrate ENLYGQS,area with substrate ENLYHQS,area with substrate ENLYKQS,area with substrate ENLYMQS,area with substrate ENLYPQS,area with substrate ENLYRQS,area with substrate ENLYTQS,area with substrate ENLYVQS,area with substrate ENLYNQS,area with substrate ENLYYQS,area with substrate ENLYIQS
MGESLFKGPRDYNPISSSICHLTNESDGHTTSLYGIGFGPFIITNKHLFRRNNGTLVVQSLHGVFKVKDTTTLQQHLVDGRDMIIIRMPKDFPPFPQKLKFREPQREERICLVTTNFQTKSMSSMVSDTSCTFPSGDGIFWKHWIQTKDGQCGSPLVSTRDGFIVGIHSASNFTNTNNYFTSVPKNFMELLTNQEAQQWVSGWRLNADSVLWGGFKVFMVKPEEPFQPVKEATQL [H215F],0.0808,0.0467,0.0638,0.058,0.0552,0.0172,0.0627,0.0478,0.0493,0.0798,0.068,–,–,–
MGESLFKGPRDYNPISSSICHLTNESDGHTTSLYGIGFGPFIITNKHLFRRNNGTLVVQSLHGVFKVKDTTTLQQHLVDGRDMIIIRMPKDFPPFPQKLKFREPQREERICLVTTNFQTKSMSSMVSDTSCTFPSGDGIFWKHWIQTKDGQCGSPLVSTRDGFIVGIHSASNFTNTNNYFTSVPKNFMELLTNQEAQQWVSGWRLNADSVLWGGKKVFMVKPEEPFQPVKEATQL [H215K],0.0535,0.0515,0.0571,0.0533,0.0575,0.0543,0.059,0.0594,–,–,0.0625,0.0652,0.0538,–
MGESLFKGPRDYNPISSSICHLTNESDGHTTSLYGIGFGPFIITNKHLFRRNNGTLVVQSLHGVFKVKDTTTLQQHLVDGRDMIIIRMPKDFPPFPQKLKFREPQREERICLVTTNFQTKSMSSMVSDTSCTFPSGDGIFWKHWIQTKDGQCGSPLVSTRDGFIVGIHSASNFTNTNNYFTSVPKNFMELLTNQEAQQWVSGWRLNADSVLWGGHKEFMVKPEEPFQPVKEATQL [V217E],0.0632,–,0.0488,0.0656,0.0644,–,0.0617,–,–,0.0428,–,0.0392,0.0492,–
MGESLFKGPRDYNPISSSICHLTNESDGHTTSLYGIGFGPFIITNKHLFRRNNGTLVVQSLHGVFKVKDTTTLQQHLVDGRDMIIIRMPKDFPPFPQKLKFREPQREERICLVTTNFQTKSMSSMVSDTSCTFPSGDGIFWKHWIQTKDGQCGSPLVSTRDGFIVGIHSASNFTNTNNYFTSVPKNFMELLTNQEAQQWVSGWRLNADSVLWGGHKVFMVKPEEPFQYVKEATQL [P228Y],0.0757,0.0633,–,0.056,0.0721,0.0648,0.0983,–,0.0539,–,–,0.064,0.0603,–
MGESLFKGPRDYNPISSSICHLTNESDGHTTSLYGIGFGPFIITNKHLFRRNNGTLVVQSLHGVFKVKDTTTLQQHLVDGRDMIIIRMPKDFPPFPQKLKFREPQREERICLVTTNFQTKSMSSMVSDTSCTFPSGDGIFWKHWIQTKDGQCGSPLVSTRDGFIVGIHSASNFTNTNNYFTSVPKNFMELLTNQEAQQWVSGWRLNADSVLWGGHKVFMVKPEEPFQPRKEATQL [V229R],0.11,–,0.0537,0.0675,0.0822,–,0.109,–,–,0.0886,0.059,0.0662,–,0.0944

# Source: the supplement of paper PMC12217912
